Test results reported in a collection of fitness landscapes (doi:10.1016/j.celrep.2020.107928).
In all, about 81,000 sequences were measured (“one-hybrid fitness for binding NBS DNA”: median about -0.1, highest 2% from about 0.36 on). Some of the results follow.

B1: Caulobacter ParB omega fusion; a variant is named by its letters at X, in order, B8GW30 (parent)
chain: MESVVVGEPGMSEGRRGLGRGLSALLGEVDAAPAQAPGEQLGGSREAPIEILQRNPDQPRRTFREEDLEDLSNSIREKGVLQPILVRPSPDTAGEYQIVAGERAWRAAQRAGLKTVPIMVRELDDLAVLEIGIIENVQRADLNVLEEALSYKVLMEKFERTQENIAQTIGKSXSHVANXMRLLXLPDEVQSYLVSGELTAXHARAIAAAADPVALAKQIIEGGLSVRETEALARKAPNLSAGKSKGGRPPRVKDTDTQALESDLSSVLGLDVSIDHRGSTGTLTITYATLEQLDDLCNRLTRGI

Variants of: B1
Experiment: one-hybrid fitness for binding NBS DNA (the Noc-binding site; scaled: cognate 1, non-cognate 0); higher = stronger binding
Conditions: with NBS DNA site
Outline: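 Caulobacter ParB libraries with four specificity codons randomised were screened by bacterial one-hybrid selection in the E. coli USO strain, using a HIS3 reporter whose site lies 19 bp from the promoter. Selection ran for 48 hours at 37°C on M9 lacking histidine, with 0.1 mM IPTG and 5 mM 3-AT. Plasmids were Illumina-sequenced before and after selection, three replicate libraries were pooled, and variants with under 10 reads were dropped. Fitness is the log change in each variant's read ratio to wild type, rescaled against the cognate and non-cognate sites.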

one-hybrid fitness for binding NBS DNA, ≤ 0.2:
ICHR
YPKC
QDYR
MGHA
NQGT
QILN
SQHR
CEPM
VRNN
LYTR
LDTA
NDRS
AHFV
PTNY
GEWK
PGAG
YAWS
GWGC
PYWV
PRQN
APSN
TSWD
WMTG
MMNS
NIML
AHGA
LMAC
DVIL
QQYL
INHH
CGWS
NEVC
TEGM
RMRW
PFKI
QHMG
SQCW
AQVG
RYAE
VLNP
HQVT
APAH
RQGQ
WGDA
VNNL
RHTD
PVYM
RLER
MATC
DVDV
HLSV
PLSM
QVPN
SAGL
TSRS
LVLI
TDWS
QVTY
FHYR
NSSC
FLNS
HMSF
TGVM
TLCS
WYCG
KVCG
SNIF
ATIR
GTLF
RGFW
QVAK
CLLY
RFLF
TQFL
KSAA
YERA
HFRG
SAHL
HYWL
YIHT
GTTI
YLLI
VNVD
PCCF
IMYV
HGPK
PSNV
QAAV
QEQC
WSQD
VNNH
EHMC
EFHT
AFAC
SPMM
CGYT
GAAS
NMPR
RPGI
STAC
NHTN
PGVN
CVLH
LTIM
YDDL
LCKM
FGTK
TGSC
DNEY
SAHG
VILN
WQKY
FIKK
VHGS
PARQ
ALWT
HLRL
GWHT
KRQG
RAAI
RFSC
SQNW
FRSF
YTAS
ENSY
LLMP
DPPD
INRF
YDQL
QAGD
ALVT
MGPF
PIST
WAIM
RQHH
PQGR
FMKT
ETTS
SSQL
GTDS
PHLA
VVEN
QPLH
NNHH
QVEW
SLWK
ALKW
REMI
KIFF
PSWT
AHAN
PFIG
TGMA
APPS
LEVT
SLDP
MIEP
HGQA
SNAD
NAPD
TEFD
EHES
MPPG
HSSR
QHMD
PAKV
QLSI
LVSI
CNVR
ACSN
NNLD
ESSC
SQEV
GPMM
IMRS
HPTI
GRWT
RTPP
ALTS
KING
QVGD
TCNG
PCPE
NTGG
GGRW

one-hybrid fitness for binding NBS DNA, 0.283:
QHVQ

one-hybrid fitness for binding NBS DNA, 0.281:
RHCT

one-hybrid fitness for binding NBS DNA, 0.275:
RKTC

one-hybrid fitness for binding NBS DNA, 0.385:
QRMQ

one-hybrid fitness for binding NBS DNA, 0.483:
RMST

one-hybrid fitness for binding NBS DNA, 0.298:
HACK

one-hybrid fitness for binding NBS DNA, 0.464:
QQKN

one-hybrid fitness for binding NBS DNA, 0.604:
RYKT

one-hybrid fitness for binding NBS DNA, 0.666:
RKRS

one-hybrid fitness for binding NBS DNA, 0.619:
QKKH
